# According to PubChem BioAssay AID588855 (National Center for Advancing Translational Sciences (NCATS), 2011):
# Among all 410,000 compounds or so, about 5,000 (1.2%) were called active. The shares of active, inactive and inconclusive entries below differ from those in the screen. Calls come from the whole dose curve; as a rule, active = well fitted inhibition curve with a large enough effect; inconclusive = small, poorly fitted or top-dose-only effect; inactive = no such curve, though single readings can be large or run the other way. Potencies beside an inconclusive call are fits to weak or partial responses and may not hold up.
# Test: qHTS for Inhibitors of TGF-b; note: nearly all actives have a fitted effect of over 65% in size
# Conditions: HepG2 CAGA-GFP TGF-b/SMAD3 reporter, GFP fluorescence, 18 h, TGF-beta stimulated, 500 pg/mL final; series mostly up to 46.1 µM
# How it was run: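 Inhibition was scored as loss of TGF-beta-induced (500 pg/mL final, 18 hours, 37 degrees C) GFP in HEPG2 cells carrying a CAGA-GFP reporter, in DMEM with 1% FBS. Well GFP was summed per cell; Activity was normalised to unstimulated and stimulated DMSO wells, then concentration-response fitting.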
# Potency is the fitted concentration of half-maximal effect; tags give direction and shape of the fitted curve.
row,Structure (SMILES),Potency
1,Cc1ccc(C(=O)CSc2nnc(CNc3nc(-c4ccccc4)cs3)n2C)cc1,"inconclusive: 35.5 µM [inhibitor, single point]"
2,O=[N+]([O-])c1ccccc1S(=O)(=O)Nc1ccc(S(=O)(=O)Nc2nccs2)cc1,"inconclusive: 15.8 µM [inhibitor, single point]"
3,CCc1ccc(/C=c2\s/c(=C\C(=O)C(C)(C)C)[nH]c2=O)cc1,"inconclusive: 22.4 µM [inhibitor, single point]"
4,Cc1nn(-c2cc(C(F)(F)F)ccc2Cl)c2nc(C(F)(F)F)[nH]c(=O)c12,"inconclusive: 3.16 µM [inhibitor, single point]"
5,CCN(Cc1ccccc1)S(=O)(=O)c1ccc2[nH]c3c(c2c1)CCCCC3,"inconclusive: 35.5 µM [inhibitor, single point]"
6,CN(C)c1ccc(C(CNS(=O)(=O)c2ccc3ccccc3c2)c2c[nH]c3ccccc23)cc1 (configuration not stated),"inconclusive: 35.5 µM [inhibitor, single point]"
7,CCC1=NN(C(=O)c2ccc(Br)cc2)C(O)(c2ccccc2)C1 (configuration not stated),"inconclusive: 11.2 µM [inhibitor, partial curve, poor fit]"
8,Cc1c(C(=O)OCCOc2ccccc2)[nH]c2c1C(=O)CC(c1ccccc1Cl)C2 (configuration not stated),"inconclusive: 1.12 µM [inhibitor, full curve]"
9,Cc1cc(C)nc(N/N=C/C2=C(N3CCOCC3)C(=C/c3ccccc3)/CC2)n1,"inconclusive: 6.31 µM [inhibitor, partial curve, poor fit]"
10,CN1CCN(C2=Cc3ccc(Cl)cc3Sc3ccc(F)cc32)CC1,"inconclusive: 35.5 µM [inhibitor, single point]"
11,O=C(Nc1nc2ccccc2n1CCN1CCCCC1)c1ccco1,"inconclusive: 3.98 µM [inhibitor, partial curve, poor fit]"
12,CC(Oc1ccccc1Cl)C(=O)Nc1ccc(S(=O)(=O)N2CCN(C)CC2)cc1 (configuration not stated),inactive
13,CC(Sc1nnc(-c2cccnc2)o1)C(=O)NC1CCCCC1 (configuration not stated),inactive
14,c1ccc(Cn2nnc3c(NCc4ccc5c(c4)OCO5)nc(C4CC4)nc32)cc1,"inconclusive: 35.5 µM [inhibitor, partial curve, poor fit]"
15,Cc1cc(SCC(=O)N2CCCC2)nc2ccccc12,inactive
16,CN1CCN(C2Cc3ccccc3Sc3cc(C(F)(F)F)ccc32)CC1 (configuration not stated),"inconclusive: 25.1 µM [inhibitor, single point]"
17,Cc1ccc(NC(=O)c2ccccc2OCC(=O)Nc2ccccc2F)cc1S(=O)(=O)N(C)C,inactive
18,Cc1nnc(-c2cccc(Br)c2)c2cn(-c3ccc(Br)cc3)nc12,"inconclusive: 10 µM [inhibitor, partial curve, poor fit]"
19,NC1=NC(=O)/C(=C/c2cn(CCC(=O)O)nc2-c2ccc(Cl)cc2)S1,inactive
20,O=C(COC(=O)c1cccc2c1C(=O)c1ccccc1C2=O)NC1CCCCC1,"inconclusive: 10 µM [inhibitor, partial curve]"
21,CN(C)c1nc(OCCNC(=O)Nc2ccccc2)nc(N(C)C)n1,"inconclusive: 3.16 µM [inhibitor, partial curve, poor fit]"
22,Cc1ccc(C)c(N(C)S(=O)(=O)c2ccc3[nH]cc(C(=O)NC4CCCC4)c(=O)c3c2)c1,"inconclusive: 35.5 µM [inhibitor, single point]"
23,CCOc1ccc(S(=O)(=O)NCC(c2cccs2)S(=O)(=O)c2ccc(C)cc2)cc1 (configuration not stated),active: 5.01 µM

row,Structure (SMILES),Potency
1,CCOC(=O)C1=C(C)C(c2cccc(Oc3ccccc3)c2)NC(=S)N1 (configuration not stated),"inconclusive: 35.5 µM [inhibitor, single point]"
2,S=c1[nH]nc(-c2ccccc2)n1C1C=CCCC1 (configuration not stated),inactive
3,CC1(C)CC2CC(C)(CN2C(=O)COC(=O)c2ccc(Cl)c(N)c2)C1 (configuration not stated),"inconclusive: 0.1 µM [inhibitor, full curve, poor fit]"
4,COc1ccc(CCN2C(=S)N(c3ccc(Cl)cc3)C(=O)C2CC(N)=O)cc1OC (configuration not stated),"inconclusive: 15.8 µM [inhibitor, partial curve, poor fit]"
5,OC(c1ccc(F)cc1)c1nc(-c2cccs2)cs1 (configuration not stated),inactive
6,Cc1ccc(S(=O)(=O)NNC(=O)CCC(=O)Nc2ccc(C)cc2C)cc1,"inconclusive: 3.16 µM [inhibitor, single point]"
7,COc1ccc2nc(C)c3c(c2c1)OC(C)C3 (configuration not stated),"inconclusive: 2.82 µM [inhibitor, partial curve]"
8,CCC(=O)Nc1cccc(C(=O)/C=C/c2cc(Br)ccc2OC)c1,active: 3.55 µM
9,COC(=O)CC1Oc2ccc(Cl)cc2-n2cc(-c3ccc(F)cc3)nc21 (configuration not stated),"inconclusive: 6.31 µM [inhibitor, single point]"
10,CC(C)NC(=O)CSc1ncccc1-c1nc2ccccc2[nH]1,inactive
11,Cc1ccc(CNC(=O)COc2cccc3c2OC(C)(C)C3)cc1,inactive
12,COc1ccc2c(c1)S/C(=C\C(=O)c1ccncc1)N2C,"inconclusive: 35.5 µM [inhibitor, partial curve, poor fit]"
13,CC(=O)Nc1cccc(NS(=O)(=O)c2cn(C)c(=O)n(C)c2=O)c1,inactive
14,Cc1ccc(NS(=O)(=O)c2ccc3[nH]c4c(c3c2)CCCCC4)cc1,"inconclusive: 17.8 µM [inhibitor, single point]"
15,COc1ccc(S(=O)(=O)c2cn(C)c3cc(N4CCOCC4)c(F)cc3c2=O)cc1,"inconclusive: 10 µM [inhibitor, partial curve, poor fit]"
16,CCC(=O)Nc1nc(C)c(-c2csc(Nc3ccccn3)n2)s1,"inconclusive: 14.1 µM [inhibitor, single point]"
17,O=C1C2C(c3ccccc3)C=CC(c3ccccc3)C2C(=O)N1CCO (configuration not stated),"inconclusive: 12.6 µM [inhibitor, partial curve, poor fit]"
18,CC(C)c1ccc(OCC(=O)Nc2ccc3oc(=O)ccc3c2)cc1,inactive
19,O=C(O)c1ccc(N/N=C/c2ccc(-c3ccc(Cl)cc3Cl)o2)cc1,"inconclusive: 35.5 µM [inhibitor, single point]"
20,O=C(NCCc1ccccc1)C1CCN(Cc2ccccc2F)CC1,inactive
21,CC1(C)CC(=O)C(C(C2=C(O)CC(C)(C)CC2=O)c2cccs2)C(=O)C1 (configuration not stated),"inconclusive: 22.4 µM [inhibitor, single point]"
22,COc1cc2c(cc1OC)C(c1cc(OC)c(O)c(OC)c1)CC(=O)N2 (configuration not stated),"inconclusive: 12.6 µM [inhibitor, partial curve, poor fit]"
23,C#CCOCCOCCOCCNc1nc(N2CCN(C(=O)CCCCCCCCCCNC(=O)Cn3cc(CCCCCN)nn3)CC2)nc(N2CCN(C(=O)CCCCCCCCCCNC(=O)Cn3cc(CCCCCN)nn3)CC2)n1,"inconclusive: 35.5 µM [inhibitor, single point]"

row,Structure (SMILES),Potency
1,CC(=O)c1ccc(NC(=O)CN2CCN(S(=O)(=O)c3ccc4ccccc4c3)CC2)cc1,"inconclusive: 22.4 µM [inhibitor, single point]"
2,O=C(O)c1ccccc1NC(=O)N1c2ccccc2Sc2ccccc21,"inconclusive: 0.891 µM [inhibitor, partial curve, poor fit]"
3,CCOc1cc(C(=O)N2CCCN(C)CC2)cc(OCC)c1OCC,inactive
4,C=CCc1ccc(OCC(O)CN2CCN(c3ccccc3OC)CC2)c(OC)c1 (configuration not stated),"inconclusive: 22.4 µM [inhibitor, single point]"
5,CCN(CC)C(=O)Cn1cc(S(=O)(=O)CC(=O)Nc2ccc(C(N)=O)cc2)c2ccccc21,inactive
6,Cc1nccc(-c2ccc(-n3cnc4ccccc43)cc2)n1,"inconclusive: 3.55 µM [inhibitor, single point]"
7,COc1ccc(/C=C2/CCC(CN3CCOCC3)C2=O)cc1 (configuration not stated),active: 5.01 µM
8,O=S(=O)(c1ccccc1Cl)N1CCCC1c1nc(-c2cccc(Cl)c2)no1 (configuration not stated),inactive
9,COc1ccc2c(c1)c1c(c(=O)n(-c3ccc(C)cc3)c(=O)n1CC(=O)Nc1cc(C)ccc1C)n2C,inactive
10,COC(=O)CSCC(=O)Nc1nnc(-c2cccc(C)c2)s1,inactive
11,O=C(Nc1cccc(C(F)(F)F)c1)c1ccc(F)c(S(=O)(=O)N2CCc3ccccc3C2)c1,active: 11.2 µM
12,Cc1c2cnn(CC(=O)NCc3ccc(F)cc3)c(=O)c2c(C)n1Cc1ccccc1Cl,"inconclusive: 35.5 µM [inhibitor, single point]"
13,O=C(O)CC/C(=N/Nc1ccc([N+](=O)[O-])cc1)C(=O)O,inactive
14,COc1ccc(N2C3=C(CC4=C2CC(C)(C)CC4=O)C(=O)CC(C)(C)C3)cc1,"inconclusive: 25.1 µM [inhibitor, single point]"
15,COc1ccc(Br)cc1CN1CCN(C(=O)c2ccc(OC)c(OC)c2)CC1,"inconclusive: 14.1 µM [inhibitor, single point]"
16,Cc1noc(/C=C/N(C)C)c1S(=O)(=O)N1CCCC(C(=O)NC(C)c2ccccc2)C1 (configuration not stated),"inconclusive: 8.91 µM [inhibitor, partial curve]"
17,CC(c1ccccc1)N(CCC(c1ccccc1)C1CCOC(C)(C)C1)C(=O)c1ccco1 (configuration not stated),"inconclusive: 35.5 µM [inhibitor, single point]"
18,N#Cc1c(-c2ccccc2)cc(-c2cccs2)nc1SCC(=O)O,inactive
19,Cc1cccc(-c2nn(-c3ccccc3)cc2CNCCO)c1,"inconclusive: 25.1 µM [inhibitor, single point]"
20,CCc1nc2ccc(C(=O)NCCc3ccccn3)cn2c1N(C)Cc1nccs1,inactive
21,O=C(OCCOc1ccc(Cl)cc1)c1cc(S(=O)(=O)N2CCCCC2)ccc1N1CCOCC1,"inconclusive: 11.2 µM [inhibitor, partial curve, poor fit]"
